# Measurements published in the supplement of paper PMC11417369.
# The list shows a part of the results.
# System: PF3D7_0420300 AP2 domain 1 (GST-tagged)
# Assay: gcPBM binding intensity (ln(normalized median fluorescence intensity)); higher = stronger DNA binding
# In short: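 GST-tagged P. falciparum DNA-binding domains, expressed in E. coli (about 25 μg on average), were applied for 1 h to an Agilent 4 × 180k array of primer-extended double-stranded 36-bp intergenic genomic probes plus negative controls. The binding buffer was 1× PBS with 1% milk, 0.2 mg/ml BSA, 0.5% salmon testes DNA and 0.03% Triton X-100. Bound protein was detected with Alexa488 anti-GST antibody and scanned at 488 nm. Binding intensity is the highest Masliner-normalised natural-log median intensity across replicate spots of either probe orientation.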
row,Sequence,gcPBM binding intensity (ln)
1,ATATATATATATATAAAGTGAAGTATGAGGGAAATA [XGTACX_negctrl_site497],9.56
2,TTATTATTTTATAACACACACATATAGATTATAGCT [CACACA_site6787],9.52
3,TTTTGTATTTATGGATGTACATAATATGTTTTAAAC [XGTACX_site3278],9.11
4,AAAAATTAAATATAAAGTACAAAATTAAAATCTTAA [XGTACX_site931],9.24
5,TATGTATGTATTAATGCGCACACAAAAAATAACAAT [CACACA_site8551],9.62
6,CAAAAGTATAATAATACACACACTTTAAAAGTTAAA [CACACA_site3343],9.67
7,AAAAATAAAATAAAATAAAATAAACATACCATATGT [CACACA_negctrl_site594],9.49
8,TAGATTCTTGAATAAGTGCAAAATATAATATTTATT,8.92
9,TAATATATGAGAAATTGTACAGAAAGGAATATGCTT [XGTACX_site5300],9.39
10,TTACAAATGGTTTACACACACATAATTGTATCAATT [CACACA_site4167],9.78
11,TATATATGTTCAATATGTACATATATATAAGTGTAT [XGTACX_site5157],9.22
12,ATATTATTGTAGAAATGTACATATATATATATATAT [XGTACX_site1882],9.31
13,AAGAAATATTTATACACACACACAAACATATATATA [CACACA_site1912],10.2
14,TATATATATATATACACACACACACCCATATATATA [CACACA_site2538],10
15,CTGTATTCATAATTCACACAAATGGTTTATATGAAT [CACACA_site4315],9.22
16,CATACATACAGATATACACACATATATAATAATATA [CACACA_site5477],9.76
17,CATATTTGCACTTTCACACATAAATATATAACTATA [CACACA_site6016],9.44
18,TTTAAACAAGGATCCACACACCCCAAAAAAAAAAGA [CACACA_site680],9.8
19,TTTTTATTTTTGTAGTGTACTTTATTTTTTTTGTTT [XGTACX_site8887],9.47
20,TATATATATATATGTGCATGTTCCCCATGCTTCCAT [TGCATGCA_site366],9.03
21,AAAATTATAATAATATGTACTTAAAAAATTTATATA [XGTACX_site632],9.1
22,AATATATATATATATAGTACATATTTTTATTCATTA [XGTACX_site2156],9.02

row,Sequence,gcPBM binding intensity (ln)
1,TATATGTATTTATATACACACATATTCTTTTGACAC [CACACA_site1206],9.46
2,ATATATATATATATATGTACATATGTATATTTTTTT [XGTACX_site1299],9.12
3,TTCTTCAAGGAAAACACATGCGCATTTTCACCAATT [TGCATGCA_site11],9.15
4,AATACACAAATATATTGTACATATATATATATATAT [XGTACX_site2440],9.23
5,ACTTATTATTAATATTGTACTCTTGAAAATTGTGGA [XGTACX_site6315],9.1
6,CATATATAAATATAAATATATATATATATATATATG [XGTACX_negctrl_site493],8.96
7,ATATATATTTTTTAAACACACACATAAATATTTGTG [CACACA_site8936],9.57
8,TTATAATCCATAATTGCACACAATATATTCATATTT [CACACA_site3916],9.37
9,AATATACAATAAAGGTGTACACATATATGATGCAAG [XGTACX_site7607],9.66
10,AAAAAGAAAAAACTTACACACATATATACAGACATG [CACACA_site550],9.93
11,AAAAAAAAATAAATAAATATATATAATATTTATGTT [GTGCAC_negctrl_site520],9.12
12,TACAGATAATATATTGCACACGTCAGAATAATATAG [CACACA_site5036],9.51
13,TGGTTAATATGTGAAAGTACATATTATATTAAAATG [XGTACX_site2636],9.16
14,TATAACTTTTTTATTACACACCTATGCAATATTATA [CACACA_site6570],9.45
15,AACAAATAAATAAATAAAAAGCAAATATGTCTATAT [GTGCAC_negctrl_site414],9.66
16,ATAAAATAAGATCTTTTTTTTTTTTTTTTCTTTTCT [XGTACX_negctrl_site73],8.93
17,ATTTATTTATTTATTTGTACATATAAATATATCAAA [XGTACX_site7383],8.99
18,TATATTTATTTATACACATGCATATTTTAAGGGCTC [TGCATGCA_site885],9.28
19,AGTATACAGATATATACACACATATATTTATTTATA [CACACA_site6279],9.57
20,AAAGATGTTATATATATGTATATATATATGTAATAT [TGCATGCA_negctrl_site386],9.28
21,CATATAATTATATATCGTACATATTAATATAATTAC [XGTACX_site401],9.12
22,ATATATATATATATATGTACTTATAAGGTATATTTA [XGTACX_site3327],9.09

row,Sequence,gcPBM binding intensity (ln)
1,TATGGTGTAATTTAGTGTATTATATTATTTTGGTTG [GTGCAC_negctrl_site445],9.66
2,GTCTATTCAAAAAAGTGTACGGACATATAAACATAC [XGTACX_site6516],9.43
3,TTAGCTATGATATATACACACCAACGAACGAAGAAA [CACACA_site6657],9.59
4,TGCAGTCTGGAGAAAAGTACATAGTATCTGGTATCT [XGTACX_site2545],9.12
5,ATATATATATTCCACACACACACAAAAAAAAAAAAA [CACACA_site3648],10.1
6,TTTTTTTTTTTTTTTGCACACAGGGTGTAGGACAAG [CACACA_site2842],9.08
7,CATTTGATAAGATACACACACAAGGAAAAAAATAAA [CACACA_site350],9.96
8,TTATAATATCTATATATCTTTTACATTTATAAGTTT [CACACA_negctrl_site1473],9.18
9,TATAATAATATTAACACACGTACAAAAGCAAACAAC [CACACA_site3494],10
10,GTTATAGAAGCATTCACACACACACCCACATACACA [CACACA_site1465],10.1
11,GAATGTTAACGTTGCACACAAAAAAAAAGTATACAT [CACACA_site2415],9.56
12,AAACGATTACTGTGTACACACATAGTTATAAACATA [CACACA_site5195],9.48
13,TTACATAATATATGTACACACGCAAATACTTAGAAT [CACACA_site320],9.55
14,AGGATATGCAGACACACACACATATATATATATATA [CACACA_site2201],9.79
15,TTTTTTAATAATAGGAAAATGAATATTATATCGAAT [TGCATGCA_negctrl_site543],8.99
16,TTTTTTTTTTTTTCAAGTACATAACTTACCCCTTTT [XGTACX_site6207],8.72
17,TTATATGCATAAAAACGTACAAAAATGTATTCATGT [XGTACX_site2215],9.3
18,AAATAAAAACATAACAGTACAGTTAACATTTTTATA [XGTACX_site3479],9.32
19,TATATATATATATATGTACACACATATATACCTTTC [CACACA_site8854],9.41
20,CCAACATTTTTTAGAAGTACATTTTTATATTTATTA [XGTACX_site5179],9.1
21,GATGGAAGGTGAAAGCGTACTTATTATAGTAATATA [XGTACX_site303],9.13
22,AGGTACTTTTTTAAAACACACATATAATATATACAC [CACACA_site1065],9.5

row,Sequence,gcPBM binding intensity (ln)
1,TGTAATAATCTTACATGTACATACATATATTATATA [XGTACX_site4012],9.23
2,TACATTCATGTGTATTGTACAAACTATTTTATAATA [XGTACX_site7744],9.12
3,TATATAATATATATAGTGCATAAGTTCAAAAGAATA [GTGCAC_site9805],9.21
4,GCATATTTTATAATTTTACACACCATATAAAATAAT [CACACA_site8904],9.51
5,ACAATCCTAACGACATGTACAAATATATATATTTTT [XGTACX_site7335],9.2
6,TACATATTTTTTATGTGTACATATTTTTTATGTGTA [XGTACX_site443],9.2
7,TTATATATTTATATTTGTACGTATAAATTTTTTTTT [XGTACX_site2833],9.09
8,AAACAAAGAAAGAACACACATACACAATATACCTAC [CACACA_site2835],9.99
9,ATATATGTGTATGTATGTACTCATTTTTGTATATAT [XGTACX_site490],9.47
10,ATAATGATATATTATAAACACACAAAGATGAATATA [CACACA_site8914],9.59
11,TATTTTGAAAAAGTTGCACACAAAATTTAAAAAAAA [CACACA_site8470],9.09
12,CATTTAAATTATAAGTGTACACGATCATATTTCATC [XGTACX_site349],9.23
13,TAAAAAATAAGATATACACACATATATATATATATA [CACACA_site2324],9.32
14,ATTCACATACATTACTTACACACCATATTAATATAT [CACACA_site459],9.69
15,AAAAAAAAAAAAAAGGAACACACAAGTAACAATAAA [CACACA_site8792],9.56
16,TAACATATTAATAACATATTTATAATATATTAATAA [TGCATGCA_negctrl_site243],8.88
17,AATTATACTTCCTTCACACAGTTACATCATATATTA [CACACA_site5942],9.6
18,AAATAAAATAAAAACATGCACACTTTATTTTTTTTA [CACACA_site2800],9.19
19,AGAAGTTTAAAAAGCACACAAAAAAAAAAAAAAAGA [CACACA_site3309],9.47
20,AAAAATACCTGAATATGTACATATGATCAATGGGCC [XGTACX_site887],9.61
21,ATTCATATATATTATACACACACATATATAAATATA [CACACA_site8228],9.74
22,AAAATCGTGTTCTGAATACACACTAATACAAAGTTG [CACACA_site3985],9.21
